The results in this text go back to ChEMBL document CHEMBL4888484, “Replenishing the malaria drug discovery pipeline: Screening and hit evaluation of the MMV Hit Generation Library 1 (HGL1) against asexual blood stage Plasmodium falciparum ,using a nano luciferase reporter read-out” (2022).

The campaign covered roughly 150,000 compounds. About 540 (0.36%) showed an effect of 50% or more. The list shows a part of the results.

The experiment deals with Plasmodium falciparum. Nature of the experiment: Primary screen in NF54 nanoGlo assay, in single point, at 2uM, 72h; a lower Z score goes with more inhibition. The format is functional, Erythrocyte. Conditions: timepoint 72 hour.
With `CCn1nc(C)c(CN2CCc3ccnc(O)c3C2)c1C`, the “% Inhibition” value is given as -12% and the Z score worked out at 1.8.

Take `N#CCCCCn1c(-c2cnccn2)noc1=O`: the “% Inhibition” value is -4% and the Z score is 0.69.

As to `Cc1ccc(CN2CCN3CCN(C)C[C@H]3C2)c2cccnc12`, the “% Inhibition” value came out at 9% and the Z score is -2.

On to `Cc1ccc(C)c(C(=O)[C@@H]2CCCN2)c1`, for which the “% Inhibition” value is -5% and the Z score is on record as 0.67.

Take `Clc1cccc2ccc(CN3CC[C@H]4CC[C@@H](C3)N4)nc12`: the “% Inhibition” value is 1% and the Z score is given as -0.07.

Turning to `CCOc1ccc2ncc(C#N)c(N3CCC(C(=O)N4CCC5(CC4)OCCO5)CC3)c2c1`, the “% Inhibition” value is recorded as -4% and the Z score is given as 0.43.

With `O=C(NCCc1cncnc1)NCc1cccs1`, the “% Inhibition” value is -4% and the Z score was 0.58.

For `Cc1cc(N2CC3(CCC3)[C@H]2c2cccnc2)ncn1`, the “% Inhibition” value was 5% and the Z score was -0.74.

For `CCCc1nn(Cc2csc(-c3ccoc3)n2)c(=O)o1`, the “% Inhibition” value is on record as -9% and the Z score came to 1.17.

For the compound `C=C(C)CN(CC)C[C@H](O)c1ccccc1`, the “% Inhibition” value was -14% and the Z score is 1.73.

Regarding `Cc1c(C)[n+]([O-])c([C@@H](c2ccc(Br)cc2F)C2C(=O)NC(=O)NC2=O)n1CCO`, the “% Inhibition” value is given as 1% and the Z score was -0.14.

`CC[C@H](NCCc1ccc2c(c1)OCO2)c1c(C)nn(C)c1C`: the “% Inhibition” value is on record as -5% and the Z score came out at 0.96.

For the compound `CCCS(=O)(=O)Nc1ccc(=O)n2c1[C@@H]1C[C@@H](CN(C(=O)Nc3ccc(F)cc3)C1)C2`, the “% Inhibition” value is on record as 27% and the Z score is on record as -3.06.

With `COc1cccc(CC(=O)N2CCN(CCO)[C@@H]3CS(=O)(=O)C[C@@H]32)c1`, the “% Inhibition” value was -3% and the Z score is 0.63.

Take `COc1ccc2c(c1)OC[C@@]1(C(=O)O)CN(CCC(F)(F)F)C[C@@H]21`: the “% Inhibition” value was 3% and the Z score was -0.33.

With `O=C(O)C[C@H](CC(=O)NCC1CCN(C(=O)Oc2ccccc2)CC1)c1cccs1`, the “% Inhibition” value was -6% and the Z score is 0.93.

For the compound `O=C(COc1cccc(C(F)(F)F)c1)N1CC(O)C(N2CCCC2)C1` (stereo unspecified), the “% Inhibition” value was 10% and the Z score was -0.89.

For the compound `Cc1ccc(-c2nccn3cc(C(=O)N4CCC5(CC4)OCCO5)nc23)cc1`, the “% Inhibition” value was -3% and the Z score stood at 0.4.

For the compound `CCN1CCCN(C(=O)COc2ccccc2)CC12CCOCC2`, the “% Inhibition” value is listed as -3% and the Z score is recorded as 0.33.

On to `C[C@@H](Cn1ccnc1)NCc1cc(F)cc(F)c1`, for which the “% Inhibition” value was -9% and the Z score came out at 1.3.

On to `Cc1cccnc1C[C@H](C)N(C)Cc1ccc(CO)o1`, for which the “% Inhibition” value was -6% and the Z score worked out at 0.97.

For the compound `Cc1ccccc1-n1c(O)c(Cc2ccc(Cl)cc2Cl)c(=O)[nH]c1=O`, the “% Inhibition” value was -6% and the Z score stood at 0.83.

With `Cc1nnc(NC(=O)Oc2ccccc2)s1`, the “% Inhibition” value was -7% and the Z score turned out to be 0.98.

In the case of `COC(=O)COc1ccc(C#N)c(Cl)c1`, the “% Inhibition” value is 42% and the Z score is listed as -4.27.

With `CC[C@@H](C(=O)N(Cc1ccccn1)C(C)(C)C)N1CCCC1=O`, the “% Inhibition” value is -9% and the Z score was found to be 1.54.

Take `NC1(c2nc(=O)c3c([nH]2)CCC3)CCCCC1`: the “% Inhibition” value turned out to be 7% and the Z score is -1.

Regarding `O=C1NC2(CCN(Cc3ccccn3)CC2)N2CC3CCCC3C12` (stereo unspecified), the “% Inhibition” value was 17% and the Z score is listed as -2.2.

For the compound `CN(C)C(=O)Oc1ccn2cc[n+](C)c2c1`, the “% Inhibition” value is -5% and the Z score is listed as 0.73.

For `COc1cccc(NC(=O)N2C3CCC2CC3)n1`, the “% Inhibition” value is reported as -1% and the Z score worked out at 0.18.

In the case of `Cc1c(C)[n+]([O-])c([C@@H](c2cccc(OC(F)F)c2)C2C(=O)N(C)C(=O)N(C)C2=O)n1Cc1ccccc1`, the “% Inhibition” value was 14% and the Z score is listed as -1.74.

Take `CC(=O)Nc1cccc(-c2ccc3c(c2)CNCC3)c1`: the “% Inhibition” value was -17% and the Z score came out at 3.42.

As for `Cc1ccn(CC(=O)N2C3CCC2CN(C)C3)c(=O)c1`, the “% Inhibition” value is recorded as 18% and the Z score was -2.26.

On to `COc1ccccc1CCN(C)Cc1c(C)noc1C`, for which the “% Inhibition” value is given as -16% and the Z score was 2.3.

As to `COc1cc2c(cc1OC)[C@H](c1cccnc1)N(C)CC2`, the “% Inhibition” value is listed as 5% and the Z score is reported as -0.78.

For the compound `CCc1nccn1C[C@H](C)NCc1cscn1`, the “% Inhibition” value was -4% and the Z score worked out at 0.61.

With `COc1nn(C)cc1NC1CCN([C@@H](C)Cc2ccccc2)CC1`, the “% Inhibition” value is -9% and the Z score was 1.67.

For the compound `O=C(Oc1ccccc1)N1CCCN(c2cc(C3CC3)ncn2)CC1`, the “% Inhibition” value is listed as 3% and the Z score is recorded as -0.35.

For the compound `C[C@]12CCC3C(CC[C@H]4CC(O)CC[C@]34C)C1CC[C@]2(O)C#N` (stereo partly specified), the “% Inhibition” value is listed as -5% and the Z score was 0.85.

As for `CC1CCCCN1CC1CCCN(c2cnccc2C#N)C1` (stereo unspecified), the “% Inhibition” value is given as -6% and the Z score came to 0.8.

With `COCCN1CC[C@H](C(=O)N2CCC(C(C)=O)(c3ccccc3)CC2)C1`, the “% Inhibition” value is given as -15% and the Z score stood at 2.57.

`CN1C[C@H](CNC(=O)c2ccccn2)C2(CCCCC2)C1`: the “% Inhibition” value is -7% and the Z score is 1.35.

With `O=C(c1ccncc1F)N1C[C@H]2CC[C@@H](C1)N(CC1CC1)C2`, the “% Inhibition” value is recorded as 2% and the Z score was -0.29.

As to `O=c1[nH]c2cc(OCC[C@H]3CCCO3)ccc2o1`, the “% Inhibition” value is -8% and the Z score is on record as 0.99.

Broadly, the % Inhibition is the change of the read-out against control, counted positive when it falls.
